The values below come from patent US20210156867A1 (YEDA RESEARCH AND DEVELOPMENT, published 2021).

In this assay the target is T1, recombinant human B-cell lymphoma protein 2 alpha His-Tag (Bcl-2) (human, UniProt P10415).
T1 construct: In the assay it was in complex with the Ni-NTA sensor compound 5; also called His-Bcl-2; not shown: His-tag
The experiment in a line: fluorescence displacement assay: emission of the His-Bcl-2-compound 5 sensor complex (200 nM) after adding 800 nM protein.

T1 sequence (P10415 1-211 limits assumed): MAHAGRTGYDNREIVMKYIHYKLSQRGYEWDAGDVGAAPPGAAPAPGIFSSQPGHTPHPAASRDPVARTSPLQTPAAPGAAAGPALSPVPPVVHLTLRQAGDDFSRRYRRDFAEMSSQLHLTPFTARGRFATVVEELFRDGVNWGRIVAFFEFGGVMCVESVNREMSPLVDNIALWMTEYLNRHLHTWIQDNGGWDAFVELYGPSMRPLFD

B1: Avidin (other, chicken (hen), UniProt P02701 25-152, looked up)
avidin subunit: ARKCSLTGKWTNDLGSNMTIGAVNSRGEFTGTYITAVTATSNEIKESPLHGTQNTINKRTQPTFGFTVNWKFSESTTVFTGQCFIDRNGKEVLKTMWLLRSSVNDIGDDWKATRVGINIFTRLRTQKE
notes: from egg white; also called avidin from hen's egg white
Consider B1, for which the binding result is listed as “no binding (tested: 800 nM)”.
